Measured values as given in patent US9498532B2, “Antibody drug conjugates” (Novartis AG, priority 2013, dated 2016).
Changes are numbered by the printed parent chain.

B1: 12422 (antibody)
heavy: QVQLVQSGAEVKKPGSSVKVSCKASGGTFSSYAISWVRQAPGQGLEWMGYISPYMGETHYAQKFQGRVTITADESTSTAYMELSSLRSEDTAVYYCARESYEYFDIWGQGTLVTVSSASTKGPSVFPLAPSSKSTSGGTAALGCLVKDYFPEPVTVSWNSGALTSGVHTFPAVLQSSGLYSLSSVVTVPSSSLGTQTYICNVNHKPSNTKVDKRV[in this place human IgG1 Fc]
light: DIQMTQSPSSLSASVGDRVTITCRASQSISNDLAWYQQKPGKAPKLLIYATSILQSGVPSRFSGSGSGTDFTLTISSLQPEDFATYYCLQYYDYSYTFGQGTKVEIKRTVAAPSVFIFPPSDEQLKSGTASVVCLLNNFYPREAKVQWKVDNALQSGNSQESVTEQDSKDSTYSLSSTLTLSKADYEKHKVYACEVTHQGLSSPVTKSFNRGEC
B2: 12439 (antibody)
heavy: QVQLVQSGAEVKKPGASVKVSCKASGYTFTSYDISWVRQAPGQGLEWMGWINPYNGGTNYAQKFQGRVTMTRDTSISTAYMELSRLRSEDTAVYYCAREGSGMIVYPGWSYAFDYWGQGTLVTVSSASTKGPSVFPLAPSSKSTSGGTAALGCLVKDYFPEPVTVSWNSGALTSGVHTFPAVLQSSGLYSLSSVVTVPSSSLGTQTYICNVNHKPSNTKVDKRV[in this place human IgG1 Fc]
light: B1 light with S28D, A34G, T51A, I53S, L89Q, Y91H, D93H, Y94T, S95P, Y96N

Tested on: human FGFR2 IIIb, FGFR2 IIIc and FGFR4
Experiment: Screening of panning outputs for specificity and cross-reactivity
Assay type: binding
Details: human FGFR2 IIIb (P21802-3), IIIc (P21802-1), FGFR4 (P22455)
Description: Using ELISA screening, single Fab clones are identified from panning output for binding to the target antigen. Fabs are tested using Fab containing crude E. coli lysates.
Maxisorp™ (Nunc) 384 well plates were coated with FGFR antigens of interest (either via passive adsoption or via capture antibodies targeting the respective tag of the antigen) in PBS at their previous determined saturation concentration. Alternatively, Reacti-Bind™ NeutrAvidin™-coated Polystyrene Strip Plates (Pierce) were used to capture biotinylated FGFR2 antigen.
After blocking of plates with 5% skim milk powder in PBS, Fab-containing E. coli lysates were added. Binding of Fabs was detected by F(ab)2 specific goat anti-human IgG conjugated to alkaline phosphatase (diluted 1:5000) using Attophos fluorescence substrate (Roche, catalog #11681982001). Fluorescence emission at 535 nm was recorded with excitation at 430 nm.
In FACS screening, single Fab clones binding to cell surface expressed antigen are identified from the panning output. Fabs are tested for cell binding using Fab containing crude E. coli lysates.
In total, 28 different panning strategies were employed using recombinant antigen material as well as cell lines as outlined above. […] Following the screening process described, 15 antibodies were selected for further characterization as described in the examples below.

Row | Molecule | FGFR isoform binding specificity found in screening
1 | B1 | bind to both human FGFR2 IIIb (Uniprot Accession # P21802-3) and IIIc isoforms (Uniprot Accession # P21802-1) and also human FGFR4
2 | B2 | bind to both human FGFR2 IIIb (Uniprot Accession # P21802-3) and IIIc isoforms (Uniprot Accession # P21802-1) and also human FGFR4
